Assay results as given in PubChem BioAssay AID624296 (National Center for Advancing Translational Sciences (NCATS), 2012).
About 9,900 (2.8%) of roughly 350,000 compounds were called active. The inconclusive results got no clear call from the source; some entries with a clear call stand among them for comparison. The call rests on the fitted dose curve; in most records, active means well fitted activation curve with a large enough effect; inconclusive means small, poorly fitted or top-dose-only effect; inactive means no such curve, though single readings can be large or run the other way. Potencies of inconclusive entries are left out as doubtful fits.
Potency means the concentration at half of the fitted maximal effect; tags describe the fitted curve by direction and shape.

Assay: A quantitative high throughput screen for small molecules that induce DNA re-replication in MCF 10a normal breast cells. Further: nearly all actives have a fitted effect of over 50% in size. On activity, positive = re-replication: % of control where 0% means no effect.
Details: MCF 10A DNA re-replication, Hoechst nuclear intensity, 48 h; activity, positive = re-replication: at 46.1 µM (top of the series)
With `CCOC(=O)/C(=N\Nc1cccc(C(F)(F)F)c1)N(CCOC)CCOC` the Potency was “inactive”. With `CC1=C/C(=N\Nc2ccccc2[N+](=O)[O-])CC(C)(C)C1` the Potency was inconclusive [activator, partial curve, poor fit]. In the case of `O=S(=O)(c1ccc(S(=O)(=O)N2CCCN(Cc3ccccc3)C2)cc1)N1CCCCCC1`, the Potency is reported as inconclusive [activator, single point]. For `COc1ccc(C(=O)c2ccc(Cl)cc2Cl)cc1`, the Potency was “inactive”. With `CCOC(=O)C1(Cc2ccccc2C)CCCN(C(=O)c2sccc2C)C1` (stereo unspecified) the Potency was “inactive”. For `O=C(COc1cc2oc(=O)c3c(c2cc1Cl)CCCC3)N1C[C@H]2C[C@@H](C1)c1cccc(=O)n1C2`, the Potency was inconclusive [activator, full curve, poor fit]. With `CC(C)Cn1c(N)c(C(=O)COC(=O)CC23CC4CC(CC(C4)C2)C3)c(=O)n(C)c1=O` the Potency was active: 11.6 µM. With `Cc1cccc(C)c1OCCNC(=O)C(=O)NCc1ccco1` the Potency was active: 2.91 µM. For `COc1cccc(CC(=O)Nc2ccc(N3CCOCC3)c(S(=O)(=O)Nc3ccccc3OC)c2)c1`, the Potency was inconclusive [activator, partial curve, poor fit]. In the case of `Cc1cccc(N2CCN(C(=O)c3ccncc3)CC2C)c1` (stereo unspecified), the Potency is reported as “inactive”. For `COc1cc(CNCCN(C)C)c(Br)cc1OCC(=O)NCc1ccccc1`, the Potency was inconclusive [activator, full curve, poor fit]. With `COc1ccc(Cl)cc1NS(=O)(=O)c1cccc2cccnc12` the Potency was “inactive”. With `Cc1ccc(OCCC(=O)N(Cc2ccccc2)c2c(N)n(Cc3ccccc3)c(=O)[nH]c2=O)cc1` the Potency was inconclusive [activator, single point]. With `CCOC(=O)C(C)Sc1nc(-c2cccs2)ccc1C#N` (stereo unspecified) the Potency was inconclusive [activator, partial curve, poor fit]. In the case of `COc1ccccc1-c1sc2ccccc2c1-c1ccc(O)cc1`, the Potency is reported as inconclusive [activator, partial curve, poor fit]. In the case of `CC(C)(C)c1ccc(-c2noc(CCC(N)=O)n2)cc1`, the activity, positive = re-replication is reported as inactive: -181% [at 0.0737 µM]. For `COc1ccc(C2=NS(=O)(=O)N(C)C(C(=O)N3CCOCC3)=C2)cc1OC`, the Potency was “inactive”. In the case of `CCCc1cc(=O)[nH]c2nnc(SCC(=O)NCc3ccc4c(c3)OCO4)n12`, the Potency is reported as “inactive”. In the case of `COc1cccc(-c2ocnc2C(=O)Nc2ccc(N3CCOCC3)cc2N2CCOCC2)c1`, the Potency is reported as “inactive”. With `CCN(CC)c1ccc(S(=O)(=O)N2CCOCC2)cc1NC(=O)CN1CCN(Cc2ccccc2)CC1` the Potency was inconclusive [activator, partial curve, poor fit]. For `CC1CC(C)CN(CCCNC(=O)C2CCCN(S(=O)(=O)N3CC(C)CC(C)C3)C2)C1` (stereo unspecified), the Potency was “inactive”. For `CCCN1C(=O)c2cccc3c(N4CCCCC4)ccc(c23)C1=O`, the Potency was active: 3.66 µM. In the case of `O=c1cc2c(nn1Cc1cccc([N+](=O)[O-])c1)-c1ccccc1CC2`, the Potency is reported as inconclusive [activator, partial curve, poor fit]. In the case of `COc1ccc(C(=O)Nc2ccnn2C2CCN(C(C)CSC)CC2)cc1` (stereo unspecified), the Potency is reported as inconclusive [activator, partial curve, poor fit]. With `Cc1ccc(N2CCN(C(=O)NC3CCCCC3)CC2C)cc1` (stereo unspecified) the Potency was inconclusive [activator, single point]. In the case of `CN(C)c1ccc(P(=O)(OC2CCCCC2)C(O)c2ccncc2)cc1` (stereo unspecified), the Potency is reported as inconclusive [activator, full curve, poor fit]. For `CCCn1c(Nc2nc3ccccc3n2C)nc2ccccc21`, the Potency was inconclusive [activator, partial curve, poor fit]. With `O=C(Cn1cnc2ccccc2c1=O)Nc1ccc(-c2nnc3n2CCCCC3)cc1` the Potency was inconclusive [activator, single point]. In the case of `CN(C)S(=O)(=O)c1cc(NC(=O)CNCc2ccc(F)cc2)ccc1Cl`, the Potency is reported as “inactive”. In the case of `CCN(CC)c1ccc(CNCc2cccs2)cc1`, the Potency is reported as “inactive”. In the case of `CC1=C(C(=O)Nc2ccc(C(=O)N3CCN(c4ccccc4F)CC3)cc2)SCCO1`, the Potency is reported as inconclusive [activator, full curve, poor fit]. With `O=c1oc2c(CN3CCN(CCO)CC3)c(O)ccc2cc1-c1ccccn1` the Potency was active: 8.2 µM. With `CCCC1CC(C(=O)Nc2ccccc2)C(=O)O1` (stereo unspecified) the Potency was inconclusive [activator, full curve, poor fit]. In the case of `CC1CCN(CC(O)COC2CCC(C(C)(C)C)CC2)CC1` (stereo unspecified), the Potency is reported as inconclusive [activator, partial curve, poor fit]. In the case of `O=C(CCN1C(=O)C2C3C=CC(C3)C2C1=O)NC1CCCc2ccccc21` (stereo unspecified), the Potency is reported as inconclusive [activator, single point]. In the case of `Cc1ccc(C(=O)CC2(O)C(=O)N(CCc3ccccc3)c3ccc(Br)cc32)o1` (stereo unspecified), the Potency is reported as inconclusive [activator, single point]. For `COc1ccc(/C=C2/NC(=O)N(Cc3ccccc3F)C2=O)cc1OC`, the Potency was “inactive”. For `CCC(=O)NC1=C(Cl)C(=O)C(NC(=O)CC)=C(Cl)C1=O`, the Potency was inconclusive [activator, single point]. In the case of `COc1ccc(NC(=O)c2cccc(N3C(=O)C4CC=C(C)CC4C3=O)c2)c(OC)c1` (stereo unspecified), the Potency is reported as inconclusive [activator, partial curve, poor fit]. In the case of `O=C(CNC(=O)c1cccs1)N/N=C/c1cccc(Cl)c1`, the Potency is reported as “inactive”. With `CCCNC(=O)c1cccc(COCC(F)(F)C(F)F)c1` the Potency was inconclusive [activator, full curve, poor fit]. In the case of `CCCCN(C)S(=O)(=O)c1cc2c(cc1Br)CCN2C(=O)C1CC1`, the Potency is reported as inconclusive [activator, single point]. In the case of `O=C(CNC(=O)c1ccccc1Cl)N/N=C/C=C/c1ccccc1`, the Potency is reported as inconclusive [activator, full curve, poor fit]. With `O=C(Nc1ccc(Cl)cc1)P(=O)(O)c1ccccc1` the Potency was “inactive”. With `COc1ccc(C(=O)Nc2nc3ccc(S(C)(=O)=O)cc3s2)cc1` the Potency was inconclusive [activator, partial curve, poor fit]. For `COc1ccc(N/C=C/C(=O)c2ccc(OC)c(OC)c2)cc1`, the Potency was active: 20.6 µM. For `CCCc1nc2c(s1)CCc1onc(-c3ccc(Br)cc3)c1-2`, the Potency was inconclusive [activator, single point]. For `N=C1S/C(=C\c2cccc3ccccc23)C(=O)N1c1ccc(F)cc1`, the Potency was inconclusive [activator, partial curve, poor fit]. With `N#CC(c1nc2ccccc2nc1N1CCCC1)S(=O)(=O)c1ccccc1` (stereo unspecified) the Potency was “inactive”. With `Cc1ccc(C(=O)CSc2nccn2-c2ccccc2)cc1` the Potency was inconclusive [activator, single point]. With `COc1ccc([C@@H]2CC=C(C(=O)O)[C@H](c3ccc(C)cc3)N2S(=O)(=O)c2ccc(C)cc2)cc1OC` the Potency was inconclusive [activator, partial curve]. With `COc1cc(C)c(NC(=O)COc2cccc3c2OC(C)(C)C3)cc1OC` the Potency was inconclusive [activator, partial curve, poor fit]. With `O=C(CC12CC3CC(CC(C3)C1)C2)NCC(=O)OCc1cc(=O)oc2ccc3ccccc3c12` the Potency was inconclusive [activator, partial curve, poor fit]. With `CCc1ccccc1-n1c(-c2ccncc2)n[nH]c1=S` the Potency was “inactive”. With `CC1=CC(C)(C)Nc2ccc(OC(=O)C(Cc3ccccc3)N3C(=O)c4ccccc4C3=O)cc21` (stereo unspecified) the Potency was inconclusive [activator, single point]. With `O=C(CCCOc1ccc(Cl)cc1Cl)N/N=C/c1ccc(Cl)cc1` the Potency was inconclusive [activator, single point]. In the case of `NC(=O)c1nc(C(=O)N2CCN(c3ccccc3)CC2)c2ccccc2n1`, the Potency is reported as inconclusive [activator, full curve, poor fit]. With `CO[C@@H]1C[C@H](O[C@H]2[C@@H](C)[C@H](O[C@@H]3O[C@@H](C)C[C@@H](N(C)C)[C@@H]3OC(C)=O)[C@H](C)C[C@]3(CO3)C(=O)[C@H](C)[C@H](OC(C)=O)[C@H](C)[C@H](C)OC(=O)[C@@H]2C)O[C@H](C)[C@@H]1OC(C)=O` the Potency was “inactive”. In the case of `Cc1cccn2c(=O)c(C(=O)NC3CCCCC3C)c(O)nc12` (stereo unspecified), the Potency is reported as “inactive”. In the case of `O=C(NCc1cccnc1)NC1CCCN1S(=O)(=O)c1ccc(Cl)cc1` (stereo unspecified), the Potency is reported as inconclusive [activator, partial curve, poor fit]. In the case of `COc1cccc(C(=O)N2c3ccccc3Sc3ccccc32)c1`, the Potency is reported as inconclusive [activator, partial curve]. For `CCc1ccc(NS(=O)(=O)c2c(C(=O)N3CCOCC3)c(C)n(C)c2C)cc1`, the Potency was “inactive”. With `COc1ccc(C(=O)NCC2CCCCC2)cc1S(=O)(=O)N1CCOCC1` the Potency was “inactive”. With `C=CCn1c(SCC(=O)NCCCO)nc2sc3c(c2c1=O)CCC3` the Potency was inconclusive [activator, single point]. In the case of `Cc1nc2cc(N3CCCCC3)c(NC(=O)c3cccnc3)cc2c(=O)n1Cc1ccccc1`, the Potency is reported as inconclusive [activator, partial curve, poor fit]. For `O=C(NCCCN1CCN(c2ccc(F)cc2)CC1)C1CCCN(c2ncnc3c2nc2n3CCCCC2)C1` (stereo unspecified), the Potency was inconclusive [activator, single point].
